We go through 1 protein from paper PMC5333991.

Substrate in the data set: O=C1OC2(c3ccc(OCOCc4ccccc4)cc3Oc3cc(OCOCc4ccccc4)ccc32)c2ccccc21
Briefly: purified protein. It is filed as biochemical, Homo sapiens. The note with it: NADP+ with regeneration system.

B1: CYP3A4 (Homo sapiens) (protein)
chain: ALIPDLAMETWLLLAVSLVLLYLYGTHSHGLFKKLGIPGPTPLPFLGNILSYHKGFCMFDMECHKKYGKVWGFYDGQQPVLAITDPDMIKTVLVKECYSVFTNRRPFGPVGFMKSAISIAEDEEWKRLRSLLSPTFTSGKLKEMVPIIAQYGDVLVRNLRREAETGKPVTLKDVFGAYSMDVITSTSFGVNIDSLNNPQDPFVENTKKLLRFDFLDPFFLSITVFPFLIPILEVLNICVFPREVTNFLRKSVKRMKESRLEDTQKHRVDFLQLMIDSQNSKETESHKALSDLELVAQSIIFIFAGYETTSSVLSFIMYELATHPDVQQKLQEEIDAVLPNKAPPTYDTVLQMEYLDMVVNETLRLFPIAMRLERVCKKDVEINGMFIPKGVVVMIPSYALHRDPKYWTEPEKFLPERFSKKNKDNIDPYIYTPFGSGPRNCIGMRFALMNMKLALIRVLQNFSFKPCKETQIPLKLSLGGLLQPEKPVVLKVESRDGTVSGA
On to B1, for which the Km was determined as 8.4 ± 1.7 µM, the kcat turned out to be 0.167 ± 0.0117 s⁻¹ and the kcat/Km was 19800 ± 2170 M⁻¹ s⁻¹.

One may read the Km as the concentration of substrate that gives half-maximal velocity. What is called kcat is the maximal rate divided by the concentration of active sites. The term kcat/Km denotes the second-order rate constant that governs catalysis at low substrate concentration.
